# From the supplement of paper PMC8728848
# Some of the results follow.
# B1: Gal 3 (Canis lupus) (protein)
# chain: MADSFSLNDALSGSGNPNPQGWPGPWGNQPAGAGGYPGASYPGAYPGQAPPGGYPGQAPPGGYPGQAPPGGYPGQAPPGGYPGQAPPGGYPGQAPPGTYPGPTAPAYPGPTAPGTQPGQPSGPGAYPPPGQPSAPGAYPAAGPFGIPAGPLTVPYDLPLPGGVKPRMLITILGTVRPSANRLALDFKRGNDVAFHFNPRFNEDNKRVIVCNTKLDNIWGKEERQAAFPFESGKPFKIQVLVESDHFKVAVNDAHLLQYNHRMKNLPEISKLGISGDIDLTSASYAMI
# Legend:
# Experiment in all cases: glycan array binding signal (z-score within array); higher = stronger binding
# Details in all cases: glycan notation: IUPAC condensed, linker removed
# [1] = target: Fuc(a1-2)Gal(b1-4)[Fuc(a1-3)]GlcNAc(b1-2)[Fuc(a1-2)Gal(b1-4)[Fuc(a1-3)]GlcNAc(b1-4)]Man(a1-3)[Fuc(a1-2)Gal(b1-4)[Fuc(a1-3)]GlcNAc(b1-2)Man(a1-6)]Man(b1-4)GlcNAc(b1-4)GlcNAc
# How it was run: (§1)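 From the Consortium for Functional Glycomics database, 3228 arrays were curated, keeping only those whose protein sequence was available. Binding is given as a within-array Z-score averaged across arrays sharing a protein sequence and across linkers. Negative Z-scores can be read as non-binding.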
# [2] = target: Fuc(a1-2)Gal(b1-4)[Fuc(a1-3)]GlcNAc(b1-3)Gal(b1-4)[Fuc(a1-3)]GlcNAc
# How it was run: as §1
# [3] = target: Fuc(a1-2)Gal(b1-4)[Fuc(a1-3)]GlcNAc(b1-3)Gal(b1-4)[Fuc(a1-3)]GlcNAc(b1-3)Gal(b1-4)[Fuc(a1-3)]GlcNAc
# How it was run: as §1
# [4] = target: Fuc(a1-2)Gal(b1-4)[Fuc(a1-3)]GlcNAc(b1-3)GalNAc
# How it was run: as §1
# Fuc(a1-2)Gal6S(b1-4)Glc = target: Fuc(a1-2)Gal6S(b1-4)Glc
# How it was run: as §1
# [5] = target: Fuc(a1-2)Gal6S(b1-4)Glc6S
# How it was run: as §1
# [6] = target: Fuc(a1-2)Gal6S(b1-4)GlcNAc
# How it was run: as §1
# Fuc(a1-2)[Gal(a1-3)]Gal = target: Fuc(a1-2)[Gal(a1-3)]Gal
# How it was run: as §1
# [7] = target: Fuc(a1-2)[Gal(a1-3)]Gal(b1-3)GlcNAc
# How it was run: as §1
# [8] = target: Fuc(a1-2)[Gal(a1-3)]Gal(b1-3)GlcNAc(b1-2)Man(a1-3)[Fuc(a1-2)[Gal(a1-3)]Gal(b1-3)GlcNAc(b1-2)Man(a1-6)]Man(b1-4)GlcNAc(b1-4)GlcNAc
# How it was run: as §1
# [9] = target: Fuc(a1-2)[Gal(a1-3)]Gal(b1-3)GlcNAc(b1-3)GalNAc
# How it was run: as §1
# [10] = target: Fuc(a1-2)[Gal(a1-3)]Gal(b1-4)Glc
# How it was run: as §1
# [11] = target: Fuc(a1-2)[Gal(a1-3)]Gal(b1-4)GlcNAc
# How it was run: as §1
# [12] = target: Fuc(a1-2)[Gal(a1-3)]Gal(b1-4)GlcNAc(b1-2)Man(a1-3)[Fuc(a1-2)[Gal(a1-3)]Gal(b1-4)GlcNAc(b1-2)Man(a1-6)]Man(b1-4)GlcNAc(b1-4)GlcNAc
# How it was run: as §1
# [13] = target: Fuc(a1-2)[Gal(a1-3)]Gal(b1-4)GlcNAc(b1-2)Man(a1-3)[Fuc(a1-2)[Gal(a1-3)]Gal(b1-4)GlcNAc(b1-2)Man(a1-6)]Man(b1-4)GlcNAc(b1-4)[Fuc(a1-6)]GlcNAc
# How it was run: as §1
# [14] = target: Fuc(a1-2)[Gal(a1-3)]Gal(b1-4)GlcNAc(b1-3)GalNAc
# How it was run: as §1
# [15] = target: Fuc(a1-2)[Gal(a1-3)]Gal(b1-4)[Fuc(a1-3)]Glc
# How it was run: as §1
# [16] = target: Fuc(a1-2)[Gal(a1-3)]Gal(b1-4)[Fuc(a1-3)]GlcNAc
# How it was run: as §1
# [17] = target: Fuc(a1-2)[Gal(a1-3)]Gal(b1-4)[Fuc(a1-3)]GlcNAc(b1-3)GalNAc
# How it was run: as §1
# [18] = target: Fuc(a1-2)[Gal(a1-4)]Gal(b1-4)GlcNAc
# How it was run: as §1
# [19] = target: Fuc(a1-2)[GalNAc(a1-3)]Gal
# How it was run: as §1
# [20] = target: Fuc(a1-2)[GalNAc(a1-3)]Gal(b1-3)GalNAc(a1-3)[Fuc(a1-2)]Gal(b1-4)GlcNAc
# How it was run: as §1
# [21] = target: Fuc(a1-2)[GalNAc(a1-3)]Gal(b1-3)GlcNAc
# How it was run: as §1
# [22] = target: Fuc(a1-2)[GalNAc(a1-3)]Gal(b1-3)GlcNAc(b1-2)Man(a1-3)[Fuc(a1-2)[GalNAc(a1-3)]Gal(b1-3)GlcNAc(b1-2)Man(a1-6)]Man(b1-4)GlcNAc(b1-4)GlcNAc
# How it was run: as §1
# [23] = target: Fuc(a1-2)[GalNAc(a1-3)]Gal(b1-3)GlcNAc(b1-3)GalNAc
# How it was run: as §1
# [24] = target: Fuc(a1-2)[GalNAc(a1-3)]Gal(b1-4)Glc
# How it was run: as §1
# [25] = target: Fuc(a1-2)[GalNAc(a1-3)]Gal(b1-4)GlcNAc
# How it was run: as §1
# [26] = target: Fuc(a1-2)[GalNAc(a1-3)]Gal(b1-4)GlcNAc(b1-2)Man(a1-3)[Fuc(a1-2)[GalNAc(a1-3)]Gal(b1-4)GlcNAc(b1-2)Man(a1-6)]Man(b1-4)GlcNAc(b1-4)GlcNAc
# How it was run: as §1
# [27] = target: Fuc(a1-2)[GalNAc(a1-3)]Gal(b1-4)GlcNAc(b1-3)Gal(b1-4)GlcNAc
# How it was run: as §1
# [28] = target: Fuc(a1-2)[GalNAc(a1-3)]Gal(b1-4)GlcNAc(b1-3)Gal(b1-4)GlcNAc(b1-3)Gal(b1-4)GlcNAc
# How it was run: as §1
binder,measurement,setting,value
B1,glycan array binding signal (z-score),[1],-0.147
same,glycan array binding signal (z-score),[2],-0.263
same,glycan array binding signal (z-score),[3],-0.223
same,glycan array binding signal (z-score),[4],-0.133
same,glycan array binding signal (z-score),Fuc(a1-2)Gal6S(b1-4)Glc,-0.251
same,glycan array binding signal (z-score),[5],-0.253
same,glycan array binding signal (z-score),[6],-0.254
same,glycan array binding signal (z-score),Fuc(a1-2)[Gal(a1-3)]Gal,-0.254
same,glycan array binding signal (z-score),[7],0.998
same,glycan array binding signal (z-score),[8],1.08
same,glycan array binding signal (z-score),[9],-0.147
same,glycan array binding signal (z-score),[10],-0.07
same,glycan array binding signal (z-score),[11],2.33
same,glycan array binding signal (z-score),[12],7.41
same,glycan array binding signal (z-score),[13],4.22
same,glycan array binding signal (z-score),[14],0
same,glycan array binding signal (z-score),[15],-0.118
same,glycan array binding signal (z-score),[16],-0.239
same,glycan array binding signal (z-score),[17],-0.139
same,glycan array binding signal (z-score),[18],-0.236
same,glycan array binding signal (z-score),[19],-0.268
same,glycan array binding signal (z-score),[20],-0.004
same,glycan array binding signal (z-score),[21],0.32
same,glycan array binding signal (z-score),[22],0.406
same,glycan array binding signal (z-score),[23],-0.152
same,glycan array binding signal (z-score),[24],0.168
same,glycan array binding signal (z-score),[25],1.64
same,glycan array binding signal (z-score),[26],7.54
same,glycan array binding signal (z-score),[27],5.05
same,glycan array binding signal (z-score),[28],5.42
